{"source": "the BET-seq Pho4 binding data (Le et al. 2018)", "note": "Some of the results follow. The energies were worked out here from pooled read counts, against the library average; single values are noisy."}
{"molecular_target": "T1, Pho4 (S. cerevisiae) (UniProt P07270)", "T1 sequence": "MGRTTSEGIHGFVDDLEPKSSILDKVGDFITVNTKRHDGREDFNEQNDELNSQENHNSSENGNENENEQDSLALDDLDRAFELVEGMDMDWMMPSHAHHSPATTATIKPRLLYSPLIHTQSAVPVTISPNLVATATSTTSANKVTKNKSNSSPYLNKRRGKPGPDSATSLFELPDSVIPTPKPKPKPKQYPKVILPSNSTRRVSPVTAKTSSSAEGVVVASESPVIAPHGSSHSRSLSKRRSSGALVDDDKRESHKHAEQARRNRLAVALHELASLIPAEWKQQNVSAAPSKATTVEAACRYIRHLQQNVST", "test": "relative binding free energy (BET-seq); higher = weaker binding", "conditions": "reference: library average", "units": {"relative binding free energy": "kcal/mol"}}
{"sequence": "ATAGTCACGTGCATTG", "relative binding free energy": 0.04}
{"sequence": "ATTTGCACGTGAATTG", "relative binding free energy": 0.28}
{"sequence": "GGAGACACGTGGTCGC", "relative binding free energy": 0.31}
{"sequence": "GGTAGCACGTGCCTTG", "relative binding free energy": -0.05}
{"sequence": "CGTATCACGTGGTATA", "relative binding free energy": 0.01}
{"sequence": "TATTACACGTGTCTTT", "relative binding free energy": 0.16}
{"sequence": "TTAGACACGTGTAGCG", "relative binding free energy": 0.16}
{"sequence": "TTTTCCACGTGGCGTT", "relative binding free energy": -0.02}
{"sequence": "TTGGTCACGTGGGTAA", "relative binding free energy": 0.05}
{"sequence": "CTTGTCACGTGTTAGA", "relative binding free energy": -0.01}
{"sequence": "AGGTGCACGTGGACTA", "relative binding free energy": 0}
{"sequence": "TTGTCCACGTGTCATT", "relative binding free energy": 0.13}
{"sequence": "ATGGCCACGTGGGGGC", "relative binding free energy": -0.22}
{"sequence": "GCTATCACGTGTTGTT", "relative binding free energy": 0.13}
{"sequence": "TTAGACACGTGTCGTA", "relative binding free energy": 0.04}
{"sequence": "ATTTGCACGTGACGGT", "relative binding free energy": 0.08}
{"sequence": "ATTAACACGTGGGGAT", "relative binding free energy": -0.17}
{"sequence": "TGGCTCACGTGGTTTT", "relative binding free energy": 0.18}
{"sequence": "TCTGTCACGTGTGATG", "relative binding free energy": 0.27}
{"sequence": "GAGCGCACGTGGTTTA", "relative binding free energy": -0.07}
{"sequence": "AATATCACGTGCTTTT", "relative binding free energy": 0.14}
{"sequence": "AAGGACACGTGTTGGA", "relative binding free energy": 0.2}
{"sequence": "ATTAGCACGTGTAGAG", "relative binding free energy": 0.12}
{"sequence": "GGAGACACGTGAGGGT", "relative binding free energy": 0.2}
{"sequence": "GGTATCACGTGCAGGT", "relative binding free energy": 0.21}
{"sequence": "TGTTACACGTGGAGGG", "relative binding free energy": 0.04}
{"sequence": "TAGATCACGTGAGAGG", "relative binding free energy": 0.35}
{"sequence": "CCGTTCACGTGGGTTA", "relative binding free energy": 0.36}
{"sequence": "GGGCTCACGTGTGAGA", "relative binding free energy": 0.54}
{"sequence": "TGGTACACGTGGTATT", "relative binding free energy": 0.07}
{"sequence": "TTTGCCACGTGGGGAT", "relative binding free energy": -0.24}
{"sequence": "TGATTCACGTGCGGTG", "relative binding free energy": 0.2}
{"sequence": "GACTTCACGTGTTTGT", "relative binding free energy": 0.14}
{"sequence": "TGTTTCACGTGTACGT", "relative binding free energy": 0.17}
{"sequence": "GCTGTCACGTGGTGTT", "relative binding free energy": 0.06}
{"sequence": "TTGCTCACGTGAGTTA", "relative binding free energy": 0.37}
{"sequence": "TGAAGCACGTGAGAGG", "relative binding free energy": 0.08}
{"sequence": "GGAGTCACGTGTTCAT", "relative binding free energy": 0.18}
{"sequence": "AGGGTCACGTGCTCGT", "relative binding free energy": 0.07}
{"sequence": "ATTGACACGTGGTGTT", "relative binding free energy": -0.01}
{"sequence": "TTTTGCACGTGGAGGT", "relative binding free energy": 0.04}
{"sequence": "GGCGTCACGTGTTAGA", "relative binding free energy": 0.24}
{"sequence": "GTTGACACGTGTTAGT", "relative binding free energy": 0.07}
{"sequence": "AAGAACACGTGCGGGT", "relative binding free energy": 0.01}
{"sequence": "GGACGCACGTGTTTTG", "relative binding free energy": 0.01}
{"sequence": "TTTAGCACGTGGAGTT", "relative binding free energy": -0.02}
{"sequence": "GATTTCACGTGGGCAG", "relative binding free energy": 0.23}
{"sequence": "AGAAGCACGTGCGGTA", "relative binding free energy": -0.02}
{"sequence": "ATAAGCACGTGGGTGT", "relative binding free energy": -0.33}
{"sequence": "TAAGGCACGTGTAGAG", "relative binding free energy": -0.08}
{"sequence": "TGTGGCACGTGTTACA", "relative binding free energy": -0.1}
{"sequence": "TTATTCACGTGCGTCG", "relative binding free energy": 0.13}
{"sequence": "AGTTTCACGTGGTATA", "relative binding free energy": 0.2}
{"sequence": "TTCAACACGTGGGGGG", "relative binding free energy": -0.06}
{"sequence": "TTTCACACGTGAGAGG", "relative binding free energy": 0.34}
{"sequence": "GTTGACACGTGACTGG", "relative binding free energy": 0.17}
{"sequence": "AGTGCCACGTGGAAGG", "relative binding free energy": -0.09}
{"sequence": "TGGTTCACGTGTGGAG", "relative binding free energy": 0.3}
{"sequence": "TCGAGCACGTGGTGAG", "relative binding free energy": -0.16}
{"sequence": "GGTACCACGTGGTGTG", "relative binding free energy": -0.19}
{"sequence": "TATAGCACGTGAGGTT", "relative binding free energy": 0.28}
{"sequence": "CAAGGCACGTGAGGGG", "relative binding free energy": 0.18}
{"sequence": "TTAATCACGTGTTCTG", "relative binding free energy": 0.08}
{"sequence": "CTTGGCACGTGTGTAT", "relative binding free energy": -0.04}
{"sequence": "GGAATCACGTGGGTGC", "relative binding free energy": 0.11}
{"sequence": "GTTTGCACGTGGATGA", "relative binding free energy": 0.03}
{"sequence": "AGCGTCACGTGTTAGT", "relative binding free energy": -0.1}
{"sequence": "CTTTTCACGTGGATTA", "relative binding free energy": 0.3}
{"sequence": "TTGCACACGTGAAGGT", "relative binding free energy": 0.17}
{"sequence": "AGGATCACGTGGGGGG", "relative binding free energy": 0}
{"sequence": "GCGGGCACGTGTGCGG", "relative binding free energy": -0.16}
{"sequence": "GTGTACACGTGTTAGT", "relative binding free energy": 0.13}
{"sequence": "TAGGGCACGTGCGTTG", "relative binding free energy": -0.19}
{"sequence": "CGGATCACGTGAGTGG", "relative binding free energy": 0.44}
{"sequence": "AGATTCACGTGTTGGT", "relative binding free energy": 0.33}
{"sequence": "TTGAGCACGTGCGGGG", "relative binding free energy": -0.07}
{"sequence": "GTAGTCACGTGTTTTT", "relative binding free energy": 0.18}
{"sequence": "ATATGCACGTGATAGT", "relative binding free energy": 0.04}
{"sequence": "GTTACCACGTGTGTTT", "relative binding free energy": 0.05}
{"sequence": "TGCTTCACGTGTAGGT", "relative binding free energy": 0.18}
{"sequence": "GTGAACACGTGTTGAT", "relative binding free energy": -0.02}
{"sequence": "GGGACCACGTGTATTT", "relative binding free energy": 0.14}
{"sequence": "GTGGTCACGTGGTTTC", "relative binding free energy": 0.21}
{"sequence": "CAGGGCACGTGGTTTT", "relative binding free energy": -0.29}
{"sequence": "TGAATCACGTGCGTTG", "relative binding free energy": 0.04}
{"sequence": "CTTATCACGTGTTGAT", "relative binding free energy": 0.18}
{"sequence": "AGGTTCACGTGCTCGT", "relative binding free energy": 0.22}
{"sequence": "GTACTCACGTGAGTTG", "relative binding free energy": 0.3}
{"sequence": "CGGAGCACGTGTTTGG", "relative binding free energy": -0.02}
{"sequence": "TAGGACACGTGATAGT", "relative binding free energy": 0.09}
{"sequence": "GTTGTCACGTGTTCTA", "relative binding free energy": 0.12}
{"sequence": "TGATTCACGTGGGGGT", "relative binding free energy": 0.22}
{"sequence": "TGAAGCACGTGGCGGT", "relative binding free energy": -0.17}
{"sequence": "ATTGTCACGTGAAAGC", "relative binding free energy": 0.24}
{"sequence": "CGTGTCACGTGAGTGA", "relative binding free energy": 0.25}
{"sequence": "GGTTGCACGTGAAGTT", "relative binding free energy": 0.23}
{"sequence": "TGGAGCACGTGGGGGG", "relative binding free energy": -0.19}
{"sequence": "GTTAACACGTGACGTT", "relative binding free energy": 0.24}
{"sequence": "TTTGCCACGTGTGTAT", "relative binding free energy": -0.12}
{"sequence": "GGTATCACGTGGTATG", "relative binding free energy": 0.09}
{"sequence": "GTTAACACGTGTCGTT", "relative binding free energy": 0.01}
{"sequence": "ATGTGCACGTGCTTAT", "relative binding free energy": -0.12}
{"sequence": "TGTGTCACGTGTACTG", "relative binding free energy": 0.14}
{"sequence": "GGAATCACGTGTCGGG", "relative binding free energy": 0.2}
{"sequence": "TCAGTCACGTGTTTGG", "relative binding free energy": -0.07}
{"sequence": "AGTATCACGTGAGTGA", "relative binding free energy": 0.34}
{"sequence": "GGAGTCACGTGGGGGG", "relative binding free energy": 0.04}
{"sequence": "ATGGTCACGTGTTGAC", "relative binding free energy": 0.13}
{"sequence": "TCTTGCACGTGGTTGT", "relative binding free energy": 0.07}
{"sequence": "TCAGTCACGTGAGGGT", "relative binding free energy": 0.22}
{"sequence": "GTGGGCACGTGGCTTG", "relative binding free energy": -0.08}
{"sequence": "ATTGTCACGTGAGTCT", "relative binding free energy": 0.24}
{"sequence": "TCTATCACGTGTGGAT", "relative binding free energy": 0.26}
{"sequence": "TATTACACGTGGCGGG", "relative binding free energy": 0.01}
{"sequence": "GTTAGCACGTGGAGCA", "relative binding free energy": 0}
{"sequence": "AGGAGCACGTGATGAA", "relative binding free energy": 0.15}
{"sequence": "TATTGCACGTGCATGG", "relative binding free energy": -0.07}
{"sequence": "AGCACCACGTGGGGGG", "relative binding free energy": -0.23}
{"sequence": "TGTCGCACGTGGGATA", "relative binding free energy": -0.21}
{"sequence": "GGGGGCACGTGGTAAA", "relative binding free energy": -0.01}
{"sequence": "TGAGACACGTGGAGCG", "relative binding free energy": 0.11}
{"sequence": "TGAGCCACGTGTGTAG", "relative binding free energy": -0.04}
{"sequence": "AAGGTCACGTGATCGG", "relative binding free energy": 0.32}
{"sequence": "TTCGTCACGTGATGGA", "relative binding free energy": 0.16}
{"sequence": "AATGTCACGTGAGTGA", "relative binding free energy": 0.18}
{"sequence": "ATGTTCACGTGATGTC", "relative binding free energy": 0.17}
{"sequence": "TGAACCACGTGTGTTG", "relative binding free energy": 0.03}
{"sequence": "ATGTACACGTGGTCAG", "relative binding free energy": -0.12}
{"sequence": "CGGAGCACGTGTGGGT", "relative binding free energy": -0.01}
{"sequence": "CTAGTCACGTGTGGGG", "relative binding free energy": 0.08}
{"sequence": "CATATCACGTGGTGAT", "relative binding free energy": 0.14}
{"sequence": "AGGTGCACGTGTATCG", "relative binding free energy": 0.07}
{"sequence": "TGTTTCACGTGTGATA", "relative binding free energy": 0.26}
{"sequence": "GAGGTCACGTGAAGAG", "relative binding free energy": 0.34}
{"sequence": "AAAAGCACGTGTGGTG", "relative binding free energy": -0.07}
{"sequence": "ATAGTCACGTGCTTGT", "relative binding free energy": -0.13}
{"sequence": "ATTTTCACGTGATATG", "relative binding free energy": 0.25}
{"sequence": "GGTCACACGTGAGTGT", "relative binding free energy": 0.43}
{"sequence": "ATGAGCACGTGAATAG", "relative binding free energy": 0.28}
{"sequence": "GGTTTCACGTGCTCTT", "relative binding free energy": 0.27}
{"sequence": "TTTGTCACGTGAGTTG", "relative binding free energy": 0.35}
{"sequence": "TTCTTCACGTGCATGT", "relative binding free energy": 0.23}
{"sequence": "TGCAACACGTGGTGAG", "relative binding free energy": 0}
{"sequence": "TCTAGCACGTGATAGT", "relative binding free energy": 0.15}
{"sequence": "AGGATCACGTGCGTGA", "relative binding free energy": 0.08}
{"sequence": "CGGGACACGTGTAGGG", "relative binding free energy": 0.11}
